# From PubChem BioAssay AID485367 (National Center for Advancing Translational Sciences (NCATS), 2010)
# Hit rate of the full screen: of about 330,000 compounds, about 560 (0.17%) were called active. This list was built around the results that the source calls inconclusive (neither active nor inactive); the mix of calls is not that of the screen. Calls follow the shape of the dose curve; as a rule, active = well fitted inhibition curve with a large enough effect; inconclusive = small, poorly fitted or top-dose-only effect, or effect the other way; inactive = flat fitted curve, though single readings scatter. Potencies of inconclusive entries are left out as doubtful fits.
# Target: ATP-dependent 6-phosphofructokinase (Trypanosoma brucei brucei) (UniProt O15648)
# Test: qHTS Assay to Find Inhibitors of T. brucei phosphofructokinase; also: nearly all actives have a fitted effect of over 60% in size
# Settings: T. brucei PFK, ADP-Glo luminescence; activity, negative = inhibition: at 57.5 µM (top of the series)
# Description: NIH Molecular Libraries Probe Production Network [MLPCN] NIH Chemical Genomics Center [NCGC] Grant: 1 R03 MH092153-01 PI Name: Malcolm Walkinshaw, University of Edinburgh NCGC Assay Overview: Various species of the protozoan family Trypanosomatidae are responsible for a range of serious human diseases in tropical and subtropical areas of the world. […] Many of the disorders caused by trypanosomatids are fatal if left untreated, but most currently used drugs are inefficient and toxic. […] Oxidative metabolism involving the mitochondrial tricarboxylic acid cycle and oxidative phosphorylation are repressed in these parasites, and recent RNA interference (RNAi) experiments have shown that even partial depletion of certain individual glycolytic enzymes can lead to the death of cultured parasites. One such glycolytic enzyme, phosphofructokinase (PFK), catalyzes the formation of fructose-1,6-bisphosphate (F1,6BP) and ADP from fructose-6-phosphate (F6P) and ATP, and in many metabolic circumstances makes an important contribution to the control of flux through the glycolytic pathway. As a specific glycolytic target, PFK is particularly attractive as it catalyzes the first irreversible step in glycolysis, and structural and kinetic studies have shown very substantial and essential differences from corresponding host enzymes, allowing for the discovery of parasite-selective inhibitors. The goal of this screen is to find small-molecule inhibitors of T. brucei PFK using a biochemical assay that measures PFK activity as a function of ADP production. A luminescence-based assay for T. brucei PFK activity has been developed which uses luciferase to detect production of ADP. Traditional luciferase-based nucleotide detection reagents rely on ATP production as a direct substrate for the luciferase reaction; however, PFK catalyzes the transfer of a phosphate from ATP to F6P, resulting in the net depletion of ATP. To directly measure the ADP product of the PFK reaction, we used the ADP-Glo detection kit (Promega), which utilizes two separate reactions to 1) deplete all remaining uncatalyzed ATP and 2) convert all remaining ADP to ATP, which is then detected through a traditional luciferase-coupled reaction. Compounds were screened as a concentration-titration series that ranged from 57 uM to 0.7 nM.
# NCGC Assay Protocol Summary: NCGC Assay Protocol Summary: Substrate buffer was dispensed into white, solid 1536-well plates at 3uL/well in 0.1M triethanolamine (TEA) buffer, pH 8.0, containing final concentrations of 5 mM MgCl2, 0.01% Tween20, 0.5 mM fructose-6-phosphate (F6P) and 0.1mM ATP. Then, 23 nL of compounds or DMSO were delivered to each well using a pin tool. One uL T. brucei PFK (0.1M TEA, 0.01% Tween20, 0.1% bovine serum albumin (BSA) and 1.25nM PFK, final concentrations) was then dispensed, and plates were incubated at room temperature for 45 min. The luminescent detection reagent, ADP-Glo (Promega), was then added in two steps: the first reagent, ADP-Glo (which converts remaining uncatalyzed ATP), was added at 2.5uL/well and incubated for ten minutes at room temperature, and the second component, Kinase Detection reagent (which converts ADP to ATP as a substrate for luciferase-based luminescence), was added immediately after at 5uL/well, followed by one final ten minute room temperature incubation. The plates were measured on a ViewLux plate reader for luminescent signal using a clear filter with a one second exposure. The %Activity was determined from the corrected luminescence values. As no specific T. brucei PFK inhibitors have been identified in the literature, 1x (1.25nM) and 0x PFK enzyme controls (untreated) were included to normalize %Activity of identified inhibitors; 0x enzyme values corresponded to 100%Activity (full inhibition), while 1x PFK enzyme values were used to normalize 0%Activity (no inhibition). Concentration-response curves were fitted to the signals arising from the resulting luminescence. […]
# Potency is read from the fitted curve at half-maximal effect; tags tell the direction and shape of the fitted curve.
# Chain of UniProt O15648 (O15648 whole entry, looked up): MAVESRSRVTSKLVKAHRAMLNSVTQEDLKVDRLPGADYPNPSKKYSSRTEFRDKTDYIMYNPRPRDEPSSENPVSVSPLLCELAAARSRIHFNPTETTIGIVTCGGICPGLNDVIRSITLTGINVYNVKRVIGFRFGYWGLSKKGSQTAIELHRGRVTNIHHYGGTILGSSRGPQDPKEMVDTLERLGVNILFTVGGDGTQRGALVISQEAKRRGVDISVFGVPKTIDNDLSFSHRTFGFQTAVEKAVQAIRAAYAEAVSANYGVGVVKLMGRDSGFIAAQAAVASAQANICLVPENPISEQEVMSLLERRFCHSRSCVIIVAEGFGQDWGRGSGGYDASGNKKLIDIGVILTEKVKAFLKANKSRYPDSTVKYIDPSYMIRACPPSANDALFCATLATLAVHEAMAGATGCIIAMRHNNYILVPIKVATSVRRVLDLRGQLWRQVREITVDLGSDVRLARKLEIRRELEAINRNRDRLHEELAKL
Structure (SMILES),"activity, negative = inhibition",Potency
CN1CCC(Oc2ccccc2Sc2ccccc2)CC1,inactive: -9.82%,
O=C(NCCS(=O)(=O)N1CCN(c2cccc(Cl)c2)CC1)c1cc(=O)c2ccccc2o1,,"inconclusive [falling, partial curve]"
Cc1ccc(S(=O)(=O)NNc2ccccc2)cc1,,"inconclusive [falling, single point]"
O=C(NCc1nnc(SCc2ccccc2)n1-c1ccc(F)cc1)C12CC3CC(CC(C3)C1)C2,inactive: -4.34%,
COc1ccc(N(CC(=O)NC2CCCCC2C)S(=O)(=O)c2c(C)nn(C)c2C)cc1 (stereo not given),,"inconclusive [falling, single point]"
COc1ccc(N2CC(C(=O)N/N=C/c3cccs3)CC2=O)cc1 (stereo not given),inactive: -6.11%,
CC(C)(C)c1ccc(C(=O)CC(Sc2ccc(Cl)cc2)C(=O)O)cc1 (stereo not given),,"inconclusive [activator, single point]"
CC1c2c([nH]c3ccccc23)CCC1C(=O)O (stereo not given),,"inconclusive [falling, single point]"
CCOc1cc(/C=C2/C(=N)N3C(=NC2=O)SN=C3S(C)(=O)=O)ccc1OC(=O)c1ccco1,,"inconclusive [falling, single point]"
N=c1sccn1CC(=O)NCc1ccc(Cl)cc1Cl,,"inconclusive [falling, single point]"
C/C=C/C=C/C(=O)N1CC2(CC(c3cccc(NC(=O)CCCCC)c3)=NO2)C[C@H]1C(N)=O (stereo not given in full),,"inconclusive [falling, partial curve]"
CCOC(=O)N1CCC(N(CCOC)C(=O)Nc2ccc(Cl)c(Cl)c2)CC1,,"inconclusive [falling, partial curve]"
O=C(NC(Nc1nc2ccccc2s1)(C(F)(F)F)C(F)(F)F)c1ccccc1,inactive: 4.8%,
NC(=O)c1ccsc1NC(=O)CSc1nc2ccccc2c(=O)n1CCCO,,"inconclusive [activator, single point]"
C#CCOCCOCCOCCNc1nc(N2CCN(C(=O)C([C@@H](C)O)n3cc([C@@H](N)CCCCN)nn3)CC2)nc(N2CCN(C(=O)[C@H](CCC(=O)O)n3cc([C@@H](N)[C@H](C)CC)nn3)CC2)n1 (stereo not given in full),,"inconclusive [activator, single point]"
CCCCn1c(N)c(N(CCOC)C(=O)c2cc(S(=O)(=O)N3CCCCC3)ccc2C)c(=O)[nH]c1=O,,"inconclusive [falling, single point]"
Cc1ccc(N2CCN(C3=NC(=O)/C(=C\c4cn[nH]c4-c4ccccc4)S3)CC2)cc1,inactive: -2.11%,
Cc1ccc(S(=O)(=O)N2[C@@H](c3ccccc3F)C(C(=O)O)=CC[C@H]2c2ccc(Cl)c(Cl)c2)cc1,,active: 26.9 µM
NS(=O)(=O)c1ccc(NC(=S)N2CCN(Cc3ccc(Cl)c(Cl)c3)CC2)cc1,,"inconclusive [falling, single point]"
CCOC(=O)CCCCC(=O)c1[nH]c(=O)[nH]c1CSc1nc(C)cc(=O)[nH]1,inactive: -2.01%,
NC[C@H](O)c1ccc(O)c(O)c1,,active: 2.13 µM
O=C(c1ccccc1O)N1N=C(c2ccccc2)CC1(O)C(F)(F)F (stereo not given),inactive: -1.92%,
O=C(COc1ccccc1)N(Cc1cccc(F)c1)C1CCS(=O)(=O)C1 (stereo not given),inactive: -6.49%,

Structure (SMILES),"activity, negative = inhibition",Potency
O=C(CCCO)N/N=C/c1ccccc1[N+](=O)[O-],,"inconclusive [falling, single point]"
COc1ccc(CN2CCN(Cc3cccc(Oc4ccccc4)c3)CC2)c(OC)c1OC,inactive: -0.365%,
O=c1c2c([N+](=O)[O-])cc([N+](=O)[O-])cc2sn1Cc1ccccc1,,active: 2.69 µM
CCN(CC)c1ccc(S(=O)(=O)N2CCCCC2)cc1NC(=O)C1CCC1,,"inconclusive [falling, single point]"
NC(=O)c1ccc(NC(=O)COC(=O)c2cc3c(s2)CCC3)cc1,,"inconclusive [falling, single point]"
Cc1ccc2c(=O)cc(C(=O)Nc3ccc(S(=O)(=O)Nc4onc(C)c4C)cc3)oc2c1,,"inconclusive [activator, partial curve]"
Cc1ccc(OCCCN2C(=O)C(=O)c3cccc(C)c32)cc1,inactive: -3.12%,
O=C(CCSCCC(=O)NCc1ccco1)NCc1ccco1,,"inconclusive [falling, single point]"
CCC12CN(S(=O)(=O)c3ccc(C)cc3)CC(CC)(CN(S(=O)(=O)c3ccc(C)cc3)C1)C2=O,,"inconclusive [falling, single point]"
Cc1ccc([N+](=O)[O-])cc1N/C=C/C(=O)c1ccco1,,"inconclusive [falling, single point]"
COc1ccc(C(=O)Oc2ccc(F)cc2C(=O)/C=C/c2ccc(OC)c(OC)c2)cc1,,"inconclusive [falling, single point]"
COC(=O)c1cc(NC(=S)Nc2cc(Cl)cc(Cl)c2)cc(C(=O)OC)c1,,"inconclusive [falling, single point]"
CCN(C(=O)C(C)N1C(=O)/C(=C/c2ccco2)SC1=S)C1CCS(=O)(=O)C1 (stereo not given),,"inconclusive [falling, single point]"
O=S(=O)(NCC1CCCO1)c1ccc(S(=O)(=O)N(Cc2ccc(F)cc2)Cc2ccccn2)cc1 (stereo not given),inactive: -0.433%,
Cc1cc(C)c(C)c(S(=O)(=O)N2CCN(c3ccc(O)cc3)CC2)c1C,,"inconclusive [falling, single point]"
O=[N+]([O-])c1ccc(OCCN2CCNCC2)cc1,inactive: -19.4%,
CCCn1c2ccc(C)cc2c2nnc(SCCN3CCCCC3)nc21,inactive: 0%,
OCc1cn(Cc2ccc(O)c3ncccc23)cn1,inactive: -2.34%,
CC1CN(c2ccc(Cl)cc2[N+](=O)[O-])CCN1S(C)(=O)=O (stereo not given),inactive: -3.83%,
O=C(N/N=C/c1c[nH]c2ccccc12)c1cc(Cl)ccc1O,,"inconclusive [activator, single point]"
CCC(C)(c1nnnn1-c1c(C)cccc1C)N(N=O)c1ccccc1Cl (stereo not given),inactive: 5.37%,
C=CCN1C(=O)/C(=c2\sc3nc(=O)c(Cc4ccccc4)nn3c2=O)c2ccccc21,inactive: -4.26%,
